Our source for the nonsense suppression values is the RNAGym collection of RNA variant scans (doi:10.1101/gad.245936.114).

B1: tRNA (parent)
chain: CUCUCGGUAGCCAAGUUGGUUUAAGGCGCAAGACUUUAAUUUAUCACUACGAAAUCUUGAGAUCGGGCGUUCGACUCGCCCCCGGGAGAUUUUUUCCUCGAGCAA

Variants at the background level are over-represented here. Some results are limits rather than exact numbers.

The variants in this data set derive from B1. In words: nonsense suppression (GFP-seq) (ratio to wild type); higher = more function; SUP4oc tRNA, yeast GFP reporter sort-seq. An outline of the steps:
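Each variant's nonsense suppression (GFPSEQ) is a cell-share-weighted bin median GFP/RFP relative to the unmutated parent tRNA. Yeast with genome-integrated tRNA variants from a ~3% random-mutation library, a galactose-driven GFP ochre reporter and RFP were grown in raffinose/galactose medium with 80 mg/L adenine, then sorted into GFP/RFP bins for Illumina sequencing. Variants needed ≥100 reads and ≥30 cells.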
For CUCUCGGUAGCCAAGUUGGUUUAAGGCGCAAGACUUUAAUUUAUCACUACGAAAUCUUGCGAUCGGGCGUUCGACUCGGCCCCGGGAGAUUUUUUCCUCGAGCAA [A60C C79G], the nonsense suppression was at most 0.026. In the case of CUCUCGGUAGCCUAGUUGGUUUAAGGCGCAAGACUUUAAUUUAUCACUACGAAAUCUUGAGAUCGGGCGUUCGACUUGCCCCCUGGAGAUUUUUUCCUCGAGCAA [A13U C77U G84U], the nonsense suppression is at most 0.026. With CUCUUGGUAGCCAACUUGGUUUAAGGCGCAAGACUUUAAUUUAUCACUACGAAGUCUUGAGAUCGGGCGUUCGACUCGCCCCCGGGAGAUUUUUUCCUCGAGCAA [C5U G15C A54G] the figure was at most 0.026; with CUCUCGGGAGCCAAGUUGGUUUCAGUCGCAAGACUUUAAUUUAUCACUACGAAAUCUUGAGAUCGGGCGUUCGACUCGCCCCCGGGAGAUUUUUUCCUCGAGCAA [U8G A23C G26U], at most 0.026.

Consider CUCUCGGUAACCAAGUUGGUUUAAGGCGCAAGACUUUAAUUUAUCACUACGAAAUCUGGAGAUCGGGCGUUCGACUCGCCCCCGGGAGAUUUUUUCCUCGAGCAA [G10A U58G], for which the nonsense suppression is at most 0.026. For CUCUCGGUAGCCAGGUUGGUUUAAGGCGCCAGACUUUAAUUUAUCACUACGAAAUCUUGACAUCGGGCGUUCGUCUCGCCCCCGGGAGAUUUUUUCCUCGAGCAA [A14G A30C G61C A74U], the nonsense suppression is at most 0.026. For CUCUCGGUAGCCAAGGUGGUUUAAGGCCCAAGACUUUAAUUUAUCACUACGAAAUCUUGAGAUCGGGCGUUCGACUAGCCCCCGGGAGAUUUUUUCCUCGAGCAA [U16G G28C C77A], the nonsense suppression was at most 0.026. As for CUCUCGGUAGCCAAGUUGGUUUAAGGCGCAAGACUUUAAUUUAUCACUACGAAAUCUUGAUAACGGGCGUUCGACCCGCCCCCGGGAGAUUUUUUCCUCGAGCAA [G61U U63A U76C], the nonsense suppression was at most 0.026. The value for CUCUCGGUGGCCAAGUUGCUUUAAGGCGCAAGACUUUAAUUUAUCACUACGAAAUCUUGAGAUCGGCCGUUCGACUCGCCCCCGGGAGAUUUUUUCCUCGAGCAA [A9G G19C G67C] was at most 0.026; that for CUCUCGGGAGCCAAGUUGGUUUAAUGCGCAAGACUUUAAUUUAUCACUACGAAUUCUUGAGAUCGGGCGGUCCACUCGCCCCCGGGAGAUUUUUUCCUCGAGCAA [U8G G25U A54U U70G G73C] was at most 0.026; that for CUCUCGGUAGCCAAGUUGGUUUAAGGCGCAAAACUUUAAUUUAUCACUACGAAAUCUUGAGAUCGGGCGUUCGACCCGCCCGCGGGAGAUUUUUUCCUCGAGCAA [G32A U76C C82G] was at most 0.026. As for CUCUCGGUAGCCAAAUUAGUUUAAGGCGCAGGACUUUAAUUUAUCACUACGAAAUCCCGAGAUCGGGCGUUCGACUCGCCCCCGGGAGAUUUUUUCCUCGAGCAA [G15A G18A A31G U57C U58C], the nonsense suppression was at most 0.026. For CUCUCGGUUGCCAAGUUGGUUUAAGGCGCAAGACUUUAAUUUAUCACUACGAAAUCUUGUGAUCGGGCGUUCGACUCGCCCCCGGGAGAUUUUUUCCUCGAGCAA [A9U A60U], the nonsense suppression worked out at 0.0653. As to CUCUCGGUAGUCAAGUUGGUGUAAGGCGCAAGACUUUAAUUUAUCACUACGAAAUCUUGGGAUCGGGCGUUCGACUCGCCCCCGGGACAUUUUUUCCUCGAGCAA [C11U U21G A60G G88C], the nonsense suppression was at most 0.026.

As for UGCUCGGAAGCCAAGUUGGUCUAAGGCGCAAGACUUUAAUUUAUCACUACGAAAUCUUGAGCUCGGGCGUUCGACUCGCCCCCGGGAGAUUUUUUCCUCGAGCAA [C1U U2G U8A U21C A62C], the nonsense suppression was at most 0.026. For the variant CUCUCGGUAGCCAAGUUGGUUUAAGGCGCAAGACUUUAAUUUAUCACUACGAAAAUUUGAGAUCGGGCGUUCGACUCGCCCCCGGGCGAUUUUUUCCUCGAGCAA [U55A C56U A87C], the nonsense suppression was at most 0.026. As for CUCUCGGUAGCCAAGUUGGUUUUAGGCGCAAGACGUUAAUUUAUCACUACGAAAUCUUGAAACCGGGCGUUCAACUCGCCCCCGGGAGAUUUUUUCCUCGAGCAA [A23U U35G G61A U63C G73A], the nonsense suppression was at most 0.026.

As to CUCUCGGUAGCCAAGUUGGUUUAAGGCGCAAGACUUUAAUUUAUCACUACGAAAUCUUGAGGUCGGGCGUUCUACUCGCCCCCGGAAGAUUUUUUCCUCGAGCAA [A62G G73U G86A], the nonsense suppression was at most 0.026. Turning to CUCUCGGUAACCAAGUUGGUUUAAGGCCCAAGACUUUAAUUUAUCACUACGAAAUCUUGACAUCGGGCGUUCGACUCGCCCCCGGGAGAUUUUUUCCUCGAGCAA [G10A G28C G61C], the nonsense suppression is at most 0.026.

For CUCUCGGUAGCCAAUUUGGUUUUAGGCGCACGACUUUAAUUUAUCACUACGAAAUCUUGAGAUCGGGCGUUCGACUCGCCCCCGGGAGAUUUUUUCCUCGAGCAA [G15U A23U A31C], the nonsense suppression was at most 0.026. CUGUCGGUAGCCAAGUUGAUUUUAGGCGCAAGACUUUAAUUUAUCACUACGAAAUCUAGAGAUCCGGCGUUCGACUCACCCCCGGGAGAUUUUUUCCUCGAGCAA [C3G G19A A23U U58A G65C G78A]: the nonsense suppression is at most 0.026. Turning to CUCUCUGUAGUCAAGUUGGUUUAAGGCGCUAGACUUUAAUUUAUCACUACGAAAUCUUGAGAUCGGGCGUUCGACUCGCCCCCGGGAGAUUUUUUCCUCGAGCAA [G6U C11U A30U], the nonsense suppression is at most 0.026. Turning to CUCUUGGUAGCCAAGAUGGUUUAAGGCGCAAGACUUUAAUUUAUCACUACGAAAUCUUGAGAUCGGGCGUUCGACUCGCCCCCGGGAGAUUUUUUCCUCGAGCAA [C5U U16A], the nonsense suppression is at most 0.026. For CUCUCCGUGGCCAAGAUGGUUUAAGGCGCAAGACUUUAAUUUAUCACUACGAAAUCUUGAGAUCGGGCGUUCGACUCGCCCCCGGGAGAUUUUUUCCUCGAGCAA [G6C A9G U16A], the nonsense suppression was at most 0.026. As to CUCUCGGUAGCAUAGUUUGUUUAAGGCGCAAGACUUUAAUUUAUCACUACGAAAUCUUGAGAUCGGGCGUUCGACUCGCCCCCGGGAGAUUUUUUCCUCGAGCAA [C12A A13U G18U], the nonsense suppression is at most 0.026.

In the case of CUCACGGUAGCCAAGUUGGUUUAAGGCGAAAGACUUUAAUUUAUCACUACGAAAUCUUGAGAUCGGGCGUUCGACUCGCCCCCGGGAGAUUUUUUCCUCGAGCAA [U4A C29A], the nonsense suppression was at most 0.026.

Turning to CUCUCGGUAGCCAAGUUGGUUUAAGGCGCAAGAUUUUAAUUUAUCACUACGAAAUCUUGAGAUCGGGCGUUCGACUCGCCCGCGGGAGAUUUUUUCCUCGAGCAA [C34U C82G], the nonsense suppression was at most 0.026.
